{
  "source": "the RNAGym collection of RNA variant scans (doi:10.1073/pnas.2313332121)",
  "parents": {"B1": {"name": "TPR 5TU (parent)", "chain": "GGAUCUUCUCGAUCUAACAAAAAAGACAAAUCUGCCACAAAGCUUGAGAGCAUCUUCGGAUGCAGAGGCGGCAGCCUUCGGUGGCGCGAUAGCGCCAACGUUCUCAACUAUGACACGCAAAACGCGUGCUCCGUUGAAUGGAGUUUAUCAUG"}},
  "note": "Variants at the background level are over-represented here.",
  "data": [
    {"variants_of": "B1", "assay": "polymerase ribozyme fitness, log enrichment relative to wild type (log ratio); higher = more active; in vitro selection for triplet polymerase activity", "in_short": "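Mutant libraries of each subunit of a heterodimeric triplet polymerase ribozyme were built by PCR and transcribed. Each library went through one round of in vitro selection in triplicate: annealing with biotinylated primer, partner subunit and triplets, frozen incubation at −7 °C, gel excision of extended constructs, streptavidin-bead capture and RT-PCR. Input and output libraries were Illumina-sequenced; only genotypes with ≥10 input reads and ≥1 read per output were kept. Fitness is log2(genotype enrichment/wild-type enrichment), using inverse-variance-weighted replicate averages.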", "values": [
      {"variant": "GGAUCUUCUCGAUCUAACAAAAAAGACAAAUCUGCCACAAAGCUUGAGAGCAUUUUCCGAUGCAGAGGCGGCAGCCUUCGGUGGAGCGAUAGCGCCAACGUUCUCAACUAUGACACGCAAAACGCGUGCUCCGUUGAAUGGAGUUUAUCAUG", "note": "[C54U G58C C85A]", "polymerase ribozyme fitness (log ratio)": -2.42},
      {"variant": "GGAUCUUCUCGAUCUAACAAAAAAGACAAAUCUGCCACAAAGCUUGAGAGCAUUUUCGGAUGCAGACGCGGCAGCCUUCGGUGGCGUGAUAGCGCCAACGUUCUCAACUAUGACACGCAAAACGCGAGCUCCGUUGAAUGGAGUUUACCAUG", "note": "[C54U G67C C87U U127A U148C]", "polymerase ribozyme fitness (log ratio)": "≤ -4.2"},
      {"variant": "GGAUCUUCUCGAUCUAACAAAAAAGACAAAUCUGCCACAAAGCUUGAGAGCAUUUUCGGAUGCAGAGCGGUCAGCCUUCGGUGGCGCGAUAGCGCCAACGUUCUCAACUAUGACACGCAAAACGCGUGCUCCGUUGAAUAGAGGUUAUCAUG", "note": "[C54U G68C C69G G71U G140A U144G]", "polymerase ribozyme fitness (log ratio)": "≤ -4.2"},
      {"variant": "GGAUCUUCUCGAUCUAACAAAAAAGACAAAUCUGCCACAAAGCUUGAGAGCAUUUUCGGAUGCAGAUGCGGCAGCCUUUGGUGGCGCGAUAUCGCCAACGUUCUCAACUAUGACACGCAAAACGCGUUCUCCGUUGAAUGGAGUUUAUCAUG", "note": "[C54U G67U C79U G92U G128U]", "polymerase ribozyme fitness (log ratio)": "≤ -4.2"},
      {"variant": "GGAUCUUCUCGAUCUAACAAAAAAGACAAAUCUGCCACAAAGCUUGAGAGCAUUUUCAGAUGCAGAGGCGGCAGCCUUCGGUGGCGCGAUAACGCCAACGUUCUCAACUAUGACACGCAAAACGCGUGCUCCGUUGAAUGGAGUAUAUCAUG", "note": "[C54U G58A G92A U145A]", "polymerase ribozyme fitness (log ratio)": -3.35},
      {"variant": "GGAUCUUCUCGAUCUAACAAAAAAGACAAAUCUGCCACAAAGCUUGAGAGCAUUUUCGGAUGCAGAGUCGACAGCCUUCGGUGGCGCGAUAGCGCCAACGUUAUGAACUAUGACACGCAAAACGCGUGCUCCGUUGAAUCGAGUUUAUCAUG", "note": "[C54U G68U G71A C103A C105G G140C]", "polymerase ribozyme fitness (log ratio)": "≤ -4.2"},
      {"variant": "GGAUCUUCUCGAUCUAACAAAAAAGACAAAUCUGCCACAAAGCUUGAGAGCAUUUUCCGAUGCGGAGGCGGCAGCCUUCGGUCGCGCGAUAGCGCCUACGUUCUCAACUAUGACAAGCAAAGCGCGUGCUCCGUUGAAUGGAGUUUAUCAUG", "note": "[C54U G58C A64G G83C A97U C116A A122G]", "polymerase ribozyme fitness (log ratio)": "≤ -4.2"},
      {"variant": "GGAUCUUCUCGAUCUAACAAAAAAGACAAAUCUGCCACAAAGCUUGAGAGCAUUUUCGGAUGCAGAGGCGGCAGCCUUCGGUGGCGCGAUAGCGCCAACGUUCUCAACUAUGACACGCAAAACGGGUGCUCCGUUGAAUGGAGUUUAUCAUG", "note": "[C54U C125G]", "polymerase ribozyme fitness (log ratio)": -1.05},
      {"variant": "GGAUCUUCUCGAUCUAACAAAAAAGACAAAUCUGCCACAAAGCUUGAGAGCAUUUUCGGAUGCAGAGGCGGCACCCUUCGGUGGCGCGAUAGCGCCAACGUUCUCAACUAUGACACGCAAAACGCGUGCUCCGUUGAAUGGAGUUUAUCAUG", "note": "[C54U G74C]", "polymerase ribozyme fitness (log ratio)": -3.95},
      {"variant": "GGAUCUUCUCGAUCUAACAAAAAAGACAAAUCUGCCACAAAGCUUGAGAGCAUUUUCGGAUGCAGAGGCGGCAGCCUUCGGUAGCGCGAUAGCGCCAACGUUGUCAACUAUGACACGCAAAACGCGUGCUCCGUUGAUUGGAGUUUAUCAUG", "note": "[C54U G83A C103G A138U]", "polymerase ribozyme fitness (log ratio)": "≤ -4.2"},
      {"variant": "GGAUCUUCUCGAUCUAACAAAAAAGACAAAUCUGCCACAAAGCUUGAGAGCAUUUUCGGAUACAGAAGCGGCAGCCUUCGGUGGCGCGAUAGCGCCAACGUUCUCAACUAUGACACGCAAAACGCGUGCUCCGUUGAAUGGCGUUUAUCAUG", "note": "[C54U G62A G67A A142C]", "polymerase ribozyme fitness (log ratio)": "≤ -4.2"},
      {"variant": "GGAUCUUCUCGAUCUAACAAAAAAGACAAAUCUGCCACAAAGCUUGAGAGCAUUUUCGGAUGCAGAGGCGGCAACCUUCGGUGGCGCGAUAGCGCCAACGUUCUCAACUAUGAUACGCAAAAGGCGUGCUCCGUUGAAUGGAGUUUAUCAUG", "note": "[C54U G74A C114U C123G]", "polymerase ribozyme fitness (log ratio)": "≤ -4.2"},
      {"variant": "GGAUCUUCUCGAUCUAACAAAAAAGACAAAUCUGCCACAAAGCUUGAGAGCAUUUUCGGAUGCAGAGGCGGCAGCCUUCGGUGGCGCGAUAGUGCCAACGUUCUCAACUAUGACACGCAAAACGCGUGCUCCGUUGAAUGGAGCUGAUCAUG", "note": "[C54U C93U U144C U146G]", "polymerase ribozyme fitness (log ratio)": -3.87},
      {"variant": "GGAUCUUCUCGAUCUAACAAAAAAGACAAAUCUGCCACAAAGCUUGAGAGCAUUUUCGGAUGCAGAGGCGGCAGCCUUCGGUGACGCGAUAGCGCCAACGUUCUCGAAUAUGACACGCAAAACGCGUGCUCCGUUGAAUGGAGUUUAUCAUG", "note": "[C54U G84A A106G C108A]", "polymerase ribozyme fitness (log ratio)": "≤ -4.2"},
      {"variant": "GGAUCUUCUCGAUCUAACAAAAAAGACAAAUCUGCCACAAAGCUUGAGAGCAUUUUCGGAUGCAGAGGCGGCAGCCUUCGGUGACGCGAUAGCGCCAACGUUCGCAUCUAUGACACGCAAAACGCGUGCUCCGUUGAAUGGACUUUAUCAUG", "note": "[C54U G84A U104G A107U G143C]", "polymerase ribozyme fitness (log ratio)": "≤ -4.2"},
      {"variant": "GGAUCUUCUCGAUCUAACAAAAAAGACAAAUCUGCCACAAAGCUUGAGAGCAUUUUCGAAUGCAGAGGCGGCAGCCUUUGGUGGAGCGAUAGCGCCAACGUUUUCAACUAUGACACGCAAAACGCGUGCUCCGUUGAAUGAAGUUUAUCAUG", "note": "[C54U G59A C79U C85A C103U G141A]", "polymerase ribozyme fitness (log ratio)": "≤ -4.2"},
      {"variant": "GGAUCUUCUCGAUCUAACAAAAAAGACAAAUCUGCCACAAAGCUUGAGAGCAUUUUCGGAUGCAGAGGCGGCAGCCUUCAGUGGCGCGAUAGCGCCAACGUUCUCAACUAUGACACGCAAAACGCGUGCUCCGUUGAAUGGAGUUUAUCAUG", "note": "[C54U G80A]", "polymerase ribozyme fitness (log ratio)": -0.56},
      {"variant": "GGAUCUUCUCGAUCUAACAAAAAAGACAAAUCUGCCACAAAGCUUGAGAGCAUUUUCGGAUGCAGAGACGGCAGCCUUCGGUGGCGCGAUGGCGCCAACGUUCUCAAGUAUGACAGGGAAAACGCGUGCUCCGUUCAAGGGAGUUUAUCAUG", "note": "[C54U G68A A91G C108G C116G C118G G136C U139G]", "polymerase ribozyme fitness (log ratio)": "≤ -4.2"},
      {"variant": "GGAUCUUCUCGAUCUAACAAAAAAGACAAAUCUGCCACAAAGCUUGAGAGCAUUUUCGGAUGCAGAGGCGGCAGCCUUCGGUAGCGCGAUAGGGCCAACGUUUUCAACUAUGACACGCAAAAAGCGUGCUCCGUUGAAUAGAGUUUAUCAUG", "note": "[C54U G83A C93G C103U C123A G140A]", "polymerase ribozyme fitness (log ratio)": "≤ -4.2"}
    ]}
  ]
}
